Experimental data from paper PMC6919601, “Identification of Plasmodium dipeptidyl aminopeptidase allosteric inhibitors by high throughput screening” (PLoS ONE, 2019).
The campaign covered roughly 110,000 compounds. About 230 (0.21%) showed an effect of 50% or more. The list shows a part of the results.

target: DPAP1 (Plasmodium falciparum, UniProt Q8IIJ9); experiment: primary screen, percent inhibition; read by cleavage of a fluorogenic dipeptide substrate; higher = more effect of the substance; design: species or system P. falciparum D10 trophozoite lysates; single well
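Note: 30 min substrate incubation versus DMSO and 10 µM JCP410 controls.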

Chain of DPAP1 (Q8IIJ9 whole entry, looked up): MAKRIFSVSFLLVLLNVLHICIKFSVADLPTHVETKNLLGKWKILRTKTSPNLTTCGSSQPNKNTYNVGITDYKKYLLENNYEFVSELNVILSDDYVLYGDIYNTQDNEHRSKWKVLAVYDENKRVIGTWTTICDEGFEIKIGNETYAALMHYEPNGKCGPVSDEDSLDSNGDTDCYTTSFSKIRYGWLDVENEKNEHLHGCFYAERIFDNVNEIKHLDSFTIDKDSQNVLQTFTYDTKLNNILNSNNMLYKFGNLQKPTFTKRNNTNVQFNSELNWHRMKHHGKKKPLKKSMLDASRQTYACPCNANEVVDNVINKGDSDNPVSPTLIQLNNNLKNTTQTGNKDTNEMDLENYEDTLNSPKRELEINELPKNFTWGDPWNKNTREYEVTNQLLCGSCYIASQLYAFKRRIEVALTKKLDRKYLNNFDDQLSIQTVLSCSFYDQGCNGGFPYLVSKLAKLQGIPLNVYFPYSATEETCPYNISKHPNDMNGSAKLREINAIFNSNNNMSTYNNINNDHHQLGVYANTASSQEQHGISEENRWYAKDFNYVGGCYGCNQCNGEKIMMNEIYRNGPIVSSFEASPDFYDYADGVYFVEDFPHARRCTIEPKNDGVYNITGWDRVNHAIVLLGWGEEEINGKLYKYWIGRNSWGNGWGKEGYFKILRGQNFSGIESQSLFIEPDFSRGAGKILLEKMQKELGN

Going from `CCOC(=O)N1CCC(NC(=O)c2cc3c(O)nc4ccccc4c3s2)CC1` to `CCOC(=O)N1CCC(N2C(=O)c3ccc(C(=O)NCc4cccc(Cl)c4)cc3C2=O)CC1`, the “% Inhibition @ 10 uM” value rises from -2.29% to 0.708%.

Compared with `COc1ccccc1S(=O)(=O)Cc1ccc(C(=O)NCCN2CCCCCC2)o1`, `O=C(NCc1ccccc1)C1CC(=O)N(C2CCCCCC2)C1` (stereo not shown) is higher in “% Inhibition @ 10 uM” value: -4.96% for the first, 2.05% for the second.

First: Nc1ccc(C(=O)NCCc2ccccc2)cc1
Second: O=C(O)c1ccc(CNC(=O)c2ccc(Br)cc2)cc1
The “% Inhibition @ 10 uM” value of the first is higher: 3.79% for the first, -1.99% for the second.

Compared with `CCCNC(=O)c1nc(C)c(C)nc1C(=O)Nc1cccc(F)c1`, `Cc1c(C(=O)Nc2cccc(F)c2)cnn1-c1ccccc1` is higher in “% Inhibition @ 10 uM” value: 0.147% for the first, 0.189% for the second.

Going from `CCOC(=O)C1=C(C)N(Cc2ccccc2)C(=O)NC1c1ccccc1F` (stereo not shown) to `CN(C)C(=O)CSc1nc2ccccc2c(=O)n1-c1ccccc1`, the “% Inhibition @ 10 uM” value falls from -0.053% to -0.736%.

Going from `C=CCn1c(=N)c(C#N)cc2c(=O)n3cc(C)ccc3nc21` to `CCn1cc(/C=C(/C#N)C(=O)Nc2ccc(OC)cc2)c2ccccc21`, the “% Inhibition @ 10 uM” value falls from 3.6% to 0.392%.

Compared with `CCOc1ccc(CCNCc2c(C(=O)O)c(C)n(Cc3ccc(F)cc3Cl)c2C)cc1`, `COc1ccc(Cn2c(C(=O)O)c(CNCCc3ccc(Cl)cc3)c3ccc(C)cc32)cc1` is higher in “% Inhibition @ 10 uM” value: -9.31% for the first, -8.45% for the second.

Compared with `COc1cccc(-c2cn3c(n2)sc2cc(C(=O)O)ccc23)c1`, `COc1ccc(-c2cc(C(=O)NC3CC3)c3cc(C(C)C)ccc3n2)cc1` is higher in “% Inhibition @ 10 uM” value: -1.6% for the first, 4.36% for the second.

Compared with `CC(C)C(=O)Nc1c2c(nn1-c1cccc(Cl)c1)CS(=O)(=O)C2`, `CCOC(=O)c1[nH]c2ccccc2c1NC(=O)C(C)C` is lower in “% Inhibition @ 10 uM” value: 5.63% for the first, -4.23% for the second.

Compared with `Cc1ccc(S(=O)(=O)N(CCc2ccccc2)CC(=O)NC2CC2)cc1`, `CCN1CCC(N(CCc2ccccc2)Cc2ccccc2)CC1` is higher in “% Inhibition @ 10 uM” value: -5.01% for the first, 4.74% for the second.

First: O=C(Cc1c(O)nc2ccccc2c1O)NCCO
Second: O=C(Cn1ncc2c3ccccc3nc-2c1O)NCC1CCCO1 (stereo not shown)
The “% Inhibition @ 10 uM” value of the first is higher: -1.69% for the first, -1.71% for the second.

Compared with `CC1CCCN(c2nc3c(-c4cccc(C(F)(F)F)c4)nnn3c3ccccc23)C1` (stereo not shown), `COc1ccc(-c2noc(-c3nnn(-c4ccccc4)c3N)n2)cc1` is lower in “% Inhibition @ 10 uM” value: -3.14% for the first, -7.62% for the second.

First: CCc1[nH]nc2c1C(c1ccc(SC)cc1)C(C#N)=C(N)O2 (stereo not shown)
Second: CCOC(=O)c1cnc2c(ccc3ccccc32)c1NCc1ccco1
The “% Inhibition @ 10 uM” value of the first is higher: -1.07% for the first, -1.1% for the second.

First: Brc1ccc(CN2CCN(C/C=C/c3ccccc3)CC2)cc1
Second: O=C(c1ccc(Br)o1)n1cnc2ccccc21
The “% Inhibition @ 10 uM” value of the first is higher: -3.65% for the first, -6.6% for the second.

Going from `NS(=O)(=O)c1ccc(CC/N=C2\C=C(O)OC23CCCCC3)cc1` to `NC(=O)c1cc(S(=O)(=O)N(CCCN2CCOCC2)Cc2ccco2)cs1`, the “% Inhibition @ 10 uM” value falls from -5.38% to -6.47%.

Going from `CCC(O)(C#CCN1CCOCC1)CC` to `CCS(=O)(=O)N1CCC(C(=O)NCCN2CCOCC2)CC1`, the “% Inhibition @ 10 uM” value rises from -2.32% to 3.79%.

First: Cc1oc(C)c2c(=O)cc(-c3ccc4c(c3)OCO4)cc(OC(=O)c3ccc(F)cc3)c12
Second: COC(=O)c1c(NC(=O)c2ccc3c(c2)CC(c2ccccc2)OC3=O)sc(C)c1C (stereo not shown)
The “% Inhibition @ 10 uM” value of the first is lower: 0.558% for the first, 3.81% for the second.

Compared with `Cc1nc2nc(C)c(CCC(=O)NCCCOC(C)C)c(C)n2n1`, `CCN(CC)CCCNC(=O)C(C)n1nc(C)c2c(C)n(-c3ccccc3)nc2c1=O` (stereo not shown) is lower in “% Inhibition @ 10 uM” value: 1.26% for the first, -1.03% for the second.

Compared with `CCCCN(CC)CCNC(=O)C1c2ccccc2C(=O)N(CC(C)C)C1c1cccs1` (stereo not shown), `COc1ccc(Br)cc1CNC(=O)C(C)n1sc2ccccc2c1=O` (stereo not shown) is lower in “% Inhibition @ 10 uM” value: 2.47% for the first, -2.29% for the second.

Going from `COc1ccc(C2=N/C(=C\c3cc(OC)ccc3OC)C(=O)O2)cc1` to `CNC(=O)C1CC(=O)N(CCc2ccc(OC)cc2)/C(=N/c2cccc(Cl)c2)S1` (stereo not shown), the “% Inhibition @ 10 uM” value rises from -3.62% to 3.86%.

Compared with `CCCNC(=O)C1CCN(c2nn3c(=O)cc(C)nc3s2)CC1`, `Cc1cccc(NC(=O)CN2C(=O)C3C4CCC(C4)C3C2=O)c1` (stereo not shown) is higher in “% Inhibition @ 10 uM” value: 3% for the first, 5.51% for the second.

Compared with `Cc1ccc(C(=O)c2ccc(Br)s2)cc1`, `Cc1ccc(-c2nc(C(=O)NC3CCCC3)c3n2CCCCC3)cc1` is higher in “% Inhibition @ 10 uM” value: -5.53% for the first, -1.4% for the second.

Compared with `COCCCNC(=O)c1ccc(CSc2nc3ccncc3n2Cc2ccccc2C)cc1`, `Cn1nc(C(=O)N2CCN(c3ccccn3)CC2)c2c1-c1ccccc1S(=O)(=O)C2` is higher in “% Inhibition @ 10 uM” value: -0.23% for the first, 3.44% for the second.

First: Cc1cc2c(cc1C)NC(CC(=O)Nc1ccccc1Cl)C(=O)N2 (stereo not shown)
Second: COCCN1CNc2c(c(=O)n(C)c(=O)n2C)C1
The “% Inhibition @ 10 uM” value of the first is higher: 14.1% for the first, -1.72% for the second.

`CC(C)CCn1c(CN2CCN(C)CC2)nc2c1c(=O)n(C)c(=O)n2C` was tested, and the “% Inhibition @ 10 uM” value was -1.43%.
